Hit rate of the full screen: of about 310,000 compounds, about 14,000 (4.5%) showed an effect of 50% or more. The effect is printed as a negative number. This is one part of the list.
Each molecule was assayed against human ether-à-go-go-related gene (hERG) potassium channel (human, UniProt Q12809) (assay: primary screen, population patch clamp on CHO cells stably expressing hERG).
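Further: peak tail current of the secondary pulse compared with the same well before compound.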

Chain of human ether-à-go-go-related gene (hERG) potassium channel (Q12809 whole entry, looked up): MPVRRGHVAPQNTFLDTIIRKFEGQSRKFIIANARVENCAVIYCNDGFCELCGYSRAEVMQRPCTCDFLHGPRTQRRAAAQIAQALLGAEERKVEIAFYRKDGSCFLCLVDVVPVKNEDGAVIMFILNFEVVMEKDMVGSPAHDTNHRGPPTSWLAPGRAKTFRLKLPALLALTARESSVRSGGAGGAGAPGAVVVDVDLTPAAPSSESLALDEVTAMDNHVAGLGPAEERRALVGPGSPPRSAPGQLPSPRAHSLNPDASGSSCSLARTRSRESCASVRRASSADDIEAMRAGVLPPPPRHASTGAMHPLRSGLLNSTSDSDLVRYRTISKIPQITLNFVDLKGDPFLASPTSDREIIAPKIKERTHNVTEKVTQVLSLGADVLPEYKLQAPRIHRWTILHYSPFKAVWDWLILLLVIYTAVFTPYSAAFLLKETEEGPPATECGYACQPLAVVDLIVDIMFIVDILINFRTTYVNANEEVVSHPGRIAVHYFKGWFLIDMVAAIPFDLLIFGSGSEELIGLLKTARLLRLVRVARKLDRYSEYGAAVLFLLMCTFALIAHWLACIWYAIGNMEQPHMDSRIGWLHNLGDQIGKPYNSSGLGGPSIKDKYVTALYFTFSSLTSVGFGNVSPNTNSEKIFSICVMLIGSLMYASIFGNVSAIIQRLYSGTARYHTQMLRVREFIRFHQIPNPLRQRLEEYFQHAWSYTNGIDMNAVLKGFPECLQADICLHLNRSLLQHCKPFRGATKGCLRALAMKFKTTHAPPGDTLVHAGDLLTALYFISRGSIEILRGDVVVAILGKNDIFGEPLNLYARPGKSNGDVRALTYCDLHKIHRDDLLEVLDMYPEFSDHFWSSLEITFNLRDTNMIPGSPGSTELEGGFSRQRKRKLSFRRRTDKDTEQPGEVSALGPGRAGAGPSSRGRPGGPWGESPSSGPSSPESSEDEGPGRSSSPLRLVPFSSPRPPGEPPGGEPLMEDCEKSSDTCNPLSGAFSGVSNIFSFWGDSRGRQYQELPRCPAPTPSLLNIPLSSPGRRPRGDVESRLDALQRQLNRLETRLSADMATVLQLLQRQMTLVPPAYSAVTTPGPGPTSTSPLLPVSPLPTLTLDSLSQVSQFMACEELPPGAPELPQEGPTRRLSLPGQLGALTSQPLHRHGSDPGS

First: NC1=NC[C@H](Cc2ccccc2)N1CCCCC1CCCCC1
Second: S=C(NN=C1CCN(Cc2ccccc2)CC1)NC1CCCCC1
The “hERG current change (%, negative = inhibition) at 10uM” value of the first is higher: -25.9% for the first, -38.5% for the second.

Compared with `O=C(CCS(=O)(=O)Cc1ccccc1)NCc1ccco1`, `O=C(NCc1ccccc1)c1cccc(S(=O)(=O)NCc2ccccc2)c1` is lower in “hERG current change (%, negative = inhibition) at 10uM” value: 8.13% for the first, -18.8% for the second.

Going from `COc1ccc(C2N(C(=O)c3ccccc3)CCN2C(=O)c2ccccc2)cc1` to `CC(=O)Oc1ccc(-c2cccc(C(=O)OCC(=O)Nc3ccccc3Oc3ccccc3)c2)cc1`, the “hERG current change (%, negative = inhibition) at 10uM” value rises from -15.6% to 4.64%.

Compared with `O=C(CN1C(=O)C(=O)N(Cc2ccccc2)C1=O)c1ccc[nH]1`, `C=CCN(c1ccccc1)S(=O)(=O)c1ccc2c(c1)NC(=O)C(C)C(=O)N2` (stereo not shown) is lower in “hERG current change (%, negative = inhibition) at 10uM” value: -1.19% for the first, -4.47% for the second.

First: [O-][n+]1onc2c1CCc1c-2nn(-c2ccccc2Cl)[n+]1[O-]
Second: O=C1CN(S(=O)(=O)c2ccc(F)cc2)c2ccccc2N1
The “hERG current change (%, negative = inhibition) at 10uM” value of the first is higher: -2.46% for the first, -3.57% for the second.

Going from `Cc1ccc2[nH]c(=O)c(C3=NN(C(=O)CCC(=O)O)C(c4cccs4)C3)c(-c3ccccc3)c2c1` (stereo not shown) to `Cc1cccc(Oc2coc3cc(OC(=O)c4cc5ccccc5oc4=O)ccc3c2=O)c1`, the “hERG current change (%, negative = inhibition) at 10uM” value falls from 14.2% to -7.1%.

Compared with `COc1ccc(S(=O)(=O)NCc2ccc(C(=O)O)cc2)cc1`, `CCCCc1ccc(NC(=S)NCc2ccc(OC)cc2)cc1` is lower in “hERG current change (%, negative = inhibition) at 10uM” value: 7.54% for the first, -0.443% for the second.

Compared with `Cc1cc(OCC(=O)NCCCn2ccnc2)c2c(C)cc(=O)oc2c1`, `Cc1nn(C)cc1CNC(=O)COc1ccc(Cl)cc1Cl` is higher in “hERG current change (%, negative = inhibition) at 10uM” value: -22.5% for the first, 0.705% for the second.

First: CCc1ccc(/C=C2/SC(=S)N(CCC(=O)Nc3cccc(C(=O)O)c3)C2=O)cc1
Second: C/C(=N\NC(=O)c1ccncc1)c1cccc(NC(=O)c2ccc(Cl)s2)c1
The “hERG current change (%, negative = inhibition) at 10uM” value of the first is higher: 1.96% for the first, -47.7% for the second.

Going from `CC(C)(C)c1cc(C(C)(C)C)n(-c2ccccc2)n1` to `Cc1cc(C)c(C)c(N=Nc2nc3ccccc3n2C)c1C`, the “hERG current change (%, negative = inhibition) at 10uM” value falls from 22.1% to -2.93%.

Compared with `CN1CCc2c(sc3nc(SCC(=O)N4CCCCC4)n(-c4ccccc4)c(=O)c23)C1`, `COc1cc(OC)cc(C(=O)Nc2ccc3nc4n(c(=O)c3c2)CCCCC4)c1` is lower in “hERG current change (%, negative = inhibition) at 10uM” value: 14.3% for the first, -48.7% for the second.

Going from `Cc1cc2oc(=O)c3c(c2cc1OCc1nn[nH]n1)CCCC3` to `COc1ccc(NC(=O)CSc2nc(C)c3c(c2C#N)CCCC3)cc1`, the “hERG current change (%, negative = inhibition) at 10uM” value falls from -0.33% to -1.14%.

Compared with `Nc1nc(Nc2cccc(F)c2)nc(NCc2ccco2)c1[N+](=O)[O-]`, `O=C(Nc1ncccn1)c1cccc(F)c1` is lower in “hERG current change (%, negative = inhibition) at 10uM” value: 17.9% for the first, 2.8% for the second.

Compared with `CC(=O)c1cccc(OCc2cc(C(=O)N3C[C@@H](C)O[C@@H](C)C3)no2)c1`, `CN1C[C@H](CNC(=O)OCc2ccccc2)C[C@@H]2c3cccc4c3c(cn4C)C[C@H]21` is lower in “hERG current change (%, negative = inhibition) at 10uM” value: 7.8% for the first, -61.9% for the second.

Going from `CC(C)(C#CCN1CCCC1)OCCC#N` to `O=C(O)CCCC(=O)N1CCCC1`, the “hERG current change (%, negative = inhibition) at 10uM” value rises from 17.8% to 21%.

Going from `COC(=O)c1ccc(COc2ccccc2/C=C(\C#N)C(=O)Nc2ccccc2C)cc1` to `C=CCNC(=O)/C(C#N)=C/c1ccccc1OCc1ccc(C(=O)OC)cc1`, the “hERG current change (%, negative = inhibition) at 10uM” value falls from 2.16% to -32.9%.

Going from `O=S(Cc1ccc(Cl)cc1)CC(O)(c1ccccc1)c1ccccc1` (stereo not shown) to `Clc1ccc(C2Nc3ccccc3-n3cccc32)cc1` (stereo not shown), the “hERG current change (%, negative = inhibition) at 10uM” value rises from -12.3% to 6.63%.

First: CCCCN(C(=O)CSc1nnc(-c2ccc(OC)cc2)n1C(C)C)c1c(N)n(Cc2ccccc2)c(=O)[nH]c1=O
Second: O=[N+]([O-])c1ccc(S(=O)(=O)NNC(=S)NCCc2ccccc2)cc1
The “hERG current change (%, negative = inhibition) at 10uM” value of the first is higher: 11.9% for the first, 0.393% for the second.

Going from `Nc1cccc(-c2ccc(CO)o2)c1` to `CCCNNC(=O)C(O)(c1cccc(C)c1)c1cccc(C)c1`, the “hERG current change (%, negative = inhibition) at 10uM” value falls from 15.7% to -2.43%.

Going from `N#CC1CCN(c2ncccc2[N+](=O)[O-])CC1` to `O=[N+]([O-])/C=C1\NCCN1Cc1ccc(Cl)nc1` [24810910], the “hERG current change (%, negative = inhibition) at 10uM” value falls from 21% to -0.135%.

First: O=C(c1cccc(Cl)c1)N(Cc1cccs1)C1CCS(=O)(=O)C1 (stereo not shown)
Second: COC(=O)Cc1c(C)c2ccc(OCC(=O)N(C)C3CCS(=O)(=O)C3)cc2oc1=O (stereo not shown)
The “hERG current change (%, negative = inhibition) at 10uM” value of the first is lower: -14.1% for the first, 21.2% for the second.

Going from `Oc1ccccc1C1=NOC(O)(C(F)F)C1` (stereo not shown) to `CCCNC(=O)Cn1c(=O)n(C)c2ccccc21`, the “hERG current change (%, negative = inhibition) at 10uM” value falls from -0.864% to -4.33%.

Compared with `Cc1ccn2c(=O)c(C(=O)NCCN3CCOCC3)c(O)nc2c1`, `Cc1ccc(CN2C(=O)CCC2C(=O)NCC2CCCO2)cc1` (stereo not shown) is lower in “hERG current change (%, negative = inhibition) at 10uM” value: 11.9% for the first, 1.51% for the second.

Going from `CC(=O)Nc1ccc(S(=O)(=O)n2cnc(C)c2)cc1` to `C=C(C)CN(CC)C(=O)CC1C(=O)NCCN1Cc1c(F)cccc1Cl` (stereo not shown), the “hERG current change (%, negative = inhibition) at 10uM” value rises from -35% to 14.8%.

First: O=P1(NC2CCCC2)COc2ccccc2OC1
Second: Cc1ccccc1OCc1nnc(SCC(=O)NC2CCCCC2)o1
The “hERG current change (%, negative = inhibition) at 10uM” value of the first is higher: 4.76% for the first, 4.41% for the second.

Going from `Cc1ccc(N2C(=O)C3CCCN3C2=S)c(C)c1` (stereo not shown) to `N#CC1=C(N)OC2=C(C(=O)CCC2)C1c1ccoc1` (stereo not shown), the “hERG current change (%, negative = inhibition) at 10uM” value rises from 2.83% to 5.92%.

Compared with `CCOC(=O)c1sc(NC(=O)CCCn2nc([N+](=O)[O-])cc2C)c(C(=O)OCC)c1C`, `CCOc1ccc(-c2nc(CSc3nncs3)cs2)cc1OC` is lower in “hERG current change (%, negative = inhibition) at 10uM” value: 2.57% for the first, -15.1% for the second.

First: CC(C)NC(=O)c1nn2c(C(F)(F)F)cc(-c3ccco3)nc2c1Cl
Second: O=CN(Cc1ccco1)C1(C(=O)NC2CCCCC2)CCCCC1
The “hERG current change (%, negative = inhibition) at 10uM” value of the first is higher: 5.88% for the first, -0.0323% for the second.

Compared with `N=c1c2c3c(sc2ncn1N)CCCC3`, `CC1(C)C/C(=C(/C#N)C(N)=O)CCO1` is higher in “hERG current change (%, negative = inhibition) at 10uM” value: 2.04% for the first, 16.1% for the second.

Source: publication PMC4336329 (PLoS ONE, 2015)
